# Measurements reported in PubChem BioAssay AID686971 (National Center for Advancing Translational Sciences (NCATS), 2013).
# The whole screen tested about 360,000 compounds, of which about 7,500 (2.1%) were called active. Inconclusive means that the source gave no clear call. Such entries were picked first, then a sample of the others. The call rests on the fitted dose curve; in most records, active means well fitted cell-killing curve with a large enough effect; inconclusive means small, poorly fitted or top-dose-only effect, or effect the other way, or another doubt; inactive means no such curve, though single readings can be large or run the other way. Potencies of inconclusive entries are left out as doubtful fits.
# Assay: qHTS for induction of synthetic lethality in tumor cells producing 2HG: qHTS for the HT-1080-IDH1KD cell line;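 on activity, negative = toxicity: 0% = DMSO wells and -100% = cell-free medium wells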
# Conditions: HT-1080 IDH1 knockdown viability, ATP luminescence, 48 h; activity, negative = toxicity: at 46.1 µM (top of the series) unless noted
# Method in brief: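 Cytotoxicity counter-line: IDH1KD HT-1080, 48 h, CellTiter-Glo. Curves classed by r2, magnitude and activity.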
# Potency means the concentration at half of the fitted maximal effect; tags describe the fitted curve by direction and shape.
SMILES,Potency,"activity, negative = toxicity"
COc1ccccc1Cc1c(-c2cccc(Br)c2)nc2ccc(Br)cn12,"inconclusive [cytotoxic, partial curve, poor fit]",
COc1ncnc2c1oc1ccccc12,,inactive: 0.724%
O=C(O)CSc1nc2ccccc2s1,,inactive: 1.46%
COc1ccc(OCC(=O)Nc2ccc(S(=O)(=O)N3CCCCC3)cc2)cc1,,inactive: 17%
C=CC[C@H](CC(=O)N(CCO)Cc1ccccc1)C(=O)N[C@H](COC(=O)[C@H](CC=C)CC(=O)OC(C)(C)C)Cc1ccccc1,,inactive: -12.9%
CC1=CC(C)(C)N(S(=O)(=O)c2ccc(C)cc2)c2cc(C)ccc21,active: 1.26 µM,
CC1=NN(c2ccc(Br)cc2)C(=O)/C1=C/c1cccs1,"inconclusive [cytotoxic, partial curve]",
COc1cc(/C=N/Nc2ccc(C)cc2)cc(Br)c1O,,inconclusive: -34.8% [cytotoxic]
c1ccc(-c2csc(Nc3ccc4c(c3)OCO4)n2)cc1,"inconclusive [cytotoxic, single point]",
COc1ccc2cc(-c3[nH]ncc3CN3C[C@@H]4CCC[C@H]3C4)ccc2c1,,inactive: -15.3%
O=C(Nc1cccc(C(F)(F)F)c1)C1Cc2c(-c3ccccc3)ccnc2O1 (stereo not given),active: 23.1 µM,
COc1ccc(-c2noc(CCCC(=O)NC3CCCCC3)n2)cc1,,inconclusive: -34.9% [cytotoxic]
O=C(/C=C/c1ccccc1)CC(=O)c1ccccc1O,,inactive: 5.65%
O=C(Nc1ccc(-c2nc3ccccc3o2)cc1)c1ccc2c(c1)OCO2,"inconclusive [cytotoxic, full curve, poor fit]",
CCNC(=S)N=Nc1c(O)[nH]c2ccc([N+](=O)[O-])cc12,active: 5.8 µM,
CC(C)C[C@H]1CN([C@@H](CC(C)C)CN2CCC[C@@H]2CN2C(=S)NC[C@@H]2Cc2ccc(O)cc2)C(=S)N1CC1CCCCC1,active: 14.6 µM,
CCCCC(=O)Nc1ccc(NC(=O)c2ccc([N+](=O)[O-])cc2Cl)cc1OC,,inactive: -8.11%
COc1cc(OC)cc(C2=Cc3ccccc3C(CC(C)=O)N2c2ccc(C#CCCO)cc2)c1 (stereo not given),"inconclusive [cytotoxic, partial curve]",
CCc1nc(SCc2ccc(OCC(C)C)cc2)n[nH]1,"inconclusive [cytotoxic, single point]",
Cc1cccc(C(=O)N[C@H](C(=O)Nc2nccs2)C(C)C)c1,,inactive: -1.06%
Clc1ccccc1-c1csc(Nc2cccnc2)n1,,inconclusive: -11.7% [cytotoxic]
COc1cccc(/C=N/NC(=O)CNC(=O)COc2cccc(C)c2)c1O,active: 23.1 µM,
CC1(C)Cc2c(c(-c3ccco3)nc3sc4c(NCCN5CCOCC5)ncnc4c23)CO1,active: 16.4 µM,
O=c1[nH]cc(-c2ccc(Br)cc2)n1Cc1ccccc1,,inactive: 0.978%
O=C(c1ccccc1)c1ccc(Oc2ccc([N+](=O)[O-])cc2[N+](=O)[O-])cc1,active: 11.6 µM,

SMILES,Potency,"activity, negative = toxicity"
c1ccc(-c2nc3cc4ccccc4cc3[nH]2)nc1,"inconclusive [cytotoxic, single point]",
CCCC(C)(C)C(=O)N1CCC1(C)C(=O)Nc1cccc2ccccc12 (stereo not given),,inactive: -24.7%
CCN1C(=O)C(=Cc2cccc(OC)c2Oc2ccc([N+](=O)[O-])cc2[N+](=O)[O-])SC1=S,active: 3.26 µM,
COc1cccc(/C=N/Nc2cc(-n3nc(C)cc3-c3ccccc3)ncn2)c1O,"inconclusive [cytotoxic, partial curve]",
O=C1NN=C(c2ccc(Cl)cc2)CC1c1cccc(Cl)c1 (stereo not given),,inactive: -0.139% [at 9.24 µM]
COc1cc(/C=C/C(=O)c2ccc(F)cc2)cc(OC)c1OC,active: 18.4 µM,
CCOc1ccc(S(=O)(=O)N(CC(=O)O)c2ccc(C)cc2)cc1,,inactive: -1.51%
O=C(CSc1ccc(Cl)cc1)N1CCN(c2ncc(C(F)(F)F)cc2Cl)CC1,"inconclusive [cytotoxic, single point]",
O=C(NCc1ccccc1)C1=C[C@@H](c2csc3ccccc23)C[C@@H](OCCCCO)O1,"inconclusive [cytotoxic, partial curve]",
c1ccc(-c2nn[nH]n2)cc1,,inconclusive: 31%
CC(C)(C)C(=O)Nc1ccc(C(=O)N/N=C/c2ccccc2OC(=O)c2ccc(Cl)cc2)cc1,"inconclusive [cytotoxic, partial curve]",
CC(=O)OC1COC(N2CCc3cc([N+](=O)[O-])ccc32)C(OC(C)=O)C1OC(C)=O (stereo not given),,inactive: -0.222%
Cc1c(Nc2cc(Cl)c3nonc3c2[N+](=O)[O-])c(=O)n(-c2ccccc2)n1C,"inconclusive [cytotoxic, full curve, poor fit]",
O=C(Nc1ccc2c(c1)OCO2)c1ccc(S(=O)(=O)N2CCCC2)cc1,,inactive: -1.49%
CC(=O)CSc1ccc(-c2nc3ccccc3[nH]2)cn1,active: 9.2 µM,
Cc1nc(C(=O)N2CCCC(N3CCN(c4ccc(F)cc4)CC3)C2)cs1 (stereo not given),,inactive: 7.46%
COc1ccc(C(=O)NCc2cc3ccccc3n2C)cc1,,inactive: -4.95%
CC(C)c1nc(NCCO)c(C#N)c2c1CCCC2,"inconclusive [cytotoxic, single point]",
NS(=O)(=O)c1cccc(NC(=O)CC(NC(=O)c2ccccc2Cl)c2ccccc2)c1 (stereo not given),,inactive: 8.63%
C/C(=N\NC(=S)NC(C)C)c1ccc(-n2ccnc2)cc1,,inactive: 5.62% [at 9.24 µM]
Cc1ccc(NC(=O)CSc2nnc(-c3ccccn3)n2N)cc1F,"inconclusive [cytotoxic, single point]",
Cc1cc(C)n2nc(CC(=O)NNC(=O)c3ccccc3Cl)nc2n1,,inactive: 9.84%
COC(=O)N[C@@H]1C[C@H]2[C@@H]3CC[C@H]4C[C@@H](OC)CC[C@]4(C)[C@H]3CC[C@@]12C,"inconclusive [cytotoxic, single point]",
O=C(NC1CCCC1)C(c1ccncc1)N(CCCN1CCOCC1)C(=O)c1ccc(-c2ccccc2)[nH]1 (stereo not given),,inactive: -10.7%
C=CCN(c1ccccc1)S(=O)(=O)c1cccc(C(=O)Nc2nnc(SCC)s2)c1,,inactive: -22.7%
